About 2,200 (0.71%) of roughly 310,000 compounds showed an effect of 50% or more. The effect is printed as a negative number. Some of the results follow.

In this assay the target is human ether-à-go-go-related gene (hERG) potassium channel (human, UniProt Q12809). The experiment in a line: primary screen, population patch clamp on CHO cells stably expressing hERG.
Sequence of human ether-à-go-go-related gene (hERG) potassium channel (Q12809 whole entry, looked up): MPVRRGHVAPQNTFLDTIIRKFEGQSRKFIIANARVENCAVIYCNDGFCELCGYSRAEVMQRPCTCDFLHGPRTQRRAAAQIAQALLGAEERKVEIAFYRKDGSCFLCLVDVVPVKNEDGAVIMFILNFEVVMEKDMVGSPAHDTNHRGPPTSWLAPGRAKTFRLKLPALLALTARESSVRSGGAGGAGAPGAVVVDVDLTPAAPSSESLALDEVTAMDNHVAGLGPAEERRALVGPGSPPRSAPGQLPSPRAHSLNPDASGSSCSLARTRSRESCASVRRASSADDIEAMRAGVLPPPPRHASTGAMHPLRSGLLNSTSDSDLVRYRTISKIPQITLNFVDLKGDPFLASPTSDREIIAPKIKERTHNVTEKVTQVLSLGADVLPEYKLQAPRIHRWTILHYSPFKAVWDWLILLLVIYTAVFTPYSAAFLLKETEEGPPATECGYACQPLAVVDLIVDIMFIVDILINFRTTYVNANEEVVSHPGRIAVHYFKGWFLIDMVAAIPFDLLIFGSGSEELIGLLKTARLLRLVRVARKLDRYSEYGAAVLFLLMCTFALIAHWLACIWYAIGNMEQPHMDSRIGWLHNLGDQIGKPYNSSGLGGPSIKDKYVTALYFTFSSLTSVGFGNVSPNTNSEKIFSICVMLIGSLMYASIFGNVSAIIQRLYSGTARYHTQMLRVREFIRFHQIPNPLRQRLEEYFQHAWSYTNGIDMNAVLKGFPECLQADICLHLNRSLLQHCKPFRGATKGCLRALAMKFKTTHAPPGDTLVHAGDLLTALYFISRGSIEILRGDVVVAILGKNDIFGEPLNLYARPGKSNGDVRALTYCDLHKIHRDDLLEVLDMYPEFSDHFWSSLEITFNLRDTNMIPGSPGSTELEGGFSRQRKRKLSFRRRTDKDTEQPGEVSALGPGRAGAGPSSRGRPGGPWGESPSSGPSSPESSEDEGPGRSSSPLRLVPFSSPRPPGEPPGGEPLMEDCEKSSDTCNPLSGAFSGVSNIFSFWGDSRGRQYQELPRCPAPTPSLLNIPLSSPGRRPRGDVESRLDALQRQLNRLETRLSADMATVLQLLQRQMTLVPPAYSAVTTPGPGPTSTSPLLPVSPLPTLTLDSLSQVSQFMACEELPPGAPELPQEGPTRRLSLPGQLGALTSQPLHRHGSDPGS
On to `COc1ccc(C(C(=O)NC2CCCC2)N(Cc2cccnc2)C(=O)Cc2cccs2)cc1OC` (centres unmarked), for which the “hERG current change (%, negative = inhibition) at 1uM” value is given as 10.1%.
The value for `Cc1cc2nc(C3CCN(Cc4nnnn4Cc4cccs4)CC3)[nH]c2cc1C` was -72.4%.
Turning to `CC1CN(C(=O)CSc2nnc(CNC(=O)c3ccc(S(=O)(=O)N(C)C)cc3)o2)CC(C)O1` (centres unmarked), the “hERG current change (%, negative = inhibition) at 1uM” value is recorded as 13.5%.
For `COCC(=O)Nc1ccc(S(=O)(=O)N2CCCC2)cc1`, the “hERG current change (%, negative = inhibition) at 1uM” value is reported as 12.4%.
The value for `N#Cc1cn(CCOC(=O)c2cccc(C(F)(F)F)c2)c(=O)[nH]c1=O` was 5.24%; that for `CCn1c(=O)c(CCC(=O)NCCN2CCOCC2)c(C)c2c(C)nn(-c3cccc(C)c3)c21` was 6.45%.
The value for `Cc1ccc2nc(SCC(=O)Nc3cc(C(F)(F)F)ccc3N3CCOCC3)[nH]c2c1` was 4.18%; that for `CCCCC(=O)Nc1ccc2c(c1)oc1ccccc12` was 9.12%; that for `Cc1nc2ccccc2c(=O)n1/N=C/C=C/c1ccccc1` was 11.6%.
On to `N#CCO/N=C/C(=O)Nc1ccc(F)cc1F`, for which the “hERG current change (%, negative = inhibition) at 1uM” value was -16.7%.
The value for `COc1cc(C2C3=C(Nc4ncnn42)c2ccccc2CC3)cc(OC)c1OC` (centres unmarked) was -7.49%; that for `O=C(CSc1nnnn1Cc1ccccc1)Nc1ccc2c(c1)OCCO2` was 1.17%.
On to `CCC(C)Cn1c(C(C)O)nc2ccccc21` (centres unmarked), for which the “hERG current change (%, negative = inhibition) at 1uM” value amounted to 1.94%.
In the case of `CCC(OC(=O)CNS(=O)(=O)c1ccccc1)C(=O)c1ccccc1` (centres unmarked), the “hERG current change (%, negative = inhibition) at 1uM” value turned out to be 11.5%.
The value for `CCCC(=O)c1ccc(N2CCOCC2)c(F)c1` was 12.9%; that for `CCOC(=O)N1CCN(C(=O)C2CCN(Cc3nc(-c4ccccc4C)oc3C)CC2)CC1` was -33.8%; that for `S=C(NCCN1CCOCC1)Nc1ccc(Cl)cc1Cl` was 3.99%.
With `CN(CC(=O)O)Cc1nc2ccccc2[nH]1.Cl`, the “hERG current change (%, negative = inhibition) at 1uM” value was 7.9%.
As to `Cl.O=C1Cc2ccccc2Sc2cc(OCCCN3CCCCC3)ccc21`, the “hERG current change (%, negative = inhibition) at 1uM” value is reported as -29.1%.
The value for `COc1ccc(-n2c(=O)[nH]cc(C(=O)Nc3ccc4c(c3)OCO4)c2=O)cc1OC` was 6.41%; that for `COC(=O)c1ccc(NC(=O)CS(=O)(=O)Cc2ccccc2)cc1` was 11.7%.
As for `COc1ccc(C2C(C(=O)c3ccco3)=C(O)C(=O)N2CCOCCO)cc1OC` (centres unmarked), the “hERG current change (%, negative = inhibition) at 1uM” value turned out to be 7.08%.
Regarding `CC(=O)C(=Nc1ccccc1Cl)NNc1ccc(Cl)cc1`, the “hERG current change (%, negative = inhibition) at 1uM” value came out at 15.8%.
For the molecule `O=C(Cc1ccc(Cl)cc1)N/N=C/c1cccs1`, the “hERG current change (%, negative = inhibition) at 1uM” value was found to be 7.89%.
Consider `COc1ccc(OC)c(/C=N/NC(=O)C(O)c2ccccc2)c1` (centres unmarked), for which the “hERG current change (%, negative = inhibition) at 1uM” value was found to be 15.1%.
Consider `O=C(N/N=C/c1ccccc1[N+](=O)[O-])c1ccc2nc[nH]c2c1`, for which the “hERG current change (%, negative = inhibition) at 1uM” value is given as 13.5%.
With `CC(C)(C)NC(=O)C(=O)N/N=C/c1ccc(F)cc1`, the “hERG current change (%, negative = inhibition) at 1uM” value is 7.86%.
In the case of `O=C(Nc1cccc(Br)c1)/C(=C\c1cccnc1)NC(=O)c1ccco1`, the “hERG current change (%, negative = inhibition) at 1uM” value is -3.24%.
Take `COc1ccc(-c2c(-c3ccsc3)oc3ccc(N4CCOCC4)cc23)cc1`: the “hERG current change (%, negative = inhibition) at 1uM” value turned out to be 4.03%.
Regarding `N#Cc1nc(-c2ccc(OCc3ccc(Cl)cc3)cc2)oc1NCCCn1ccnc1`, the “hERG current change (%, negative = inhibition) at 1uM” value amounted to 4.38%.
Consider `Cc1ccc(-n2c(Cc3cccc4ccccc34)n[nH]c2=S)c(C)c1`, for which the “hERG current change (%, negative = inhibition) at 1uM” value is on record as 13.3%.
Take `Cc1noc(C)c1C(=O)Nc1nc(-c2ccccc2Cl)cs1`: the “hERG current change (%, negative = inhibition) at 1uM” value stood at 6.32%.
As to `c1cc2c(cc1-c1cnc3n1CCC3)OCCO2`, the “hERG current change (%, negative = inhibition) at 1uM” value is -8.31%.
On to `c1ccc(OCCCCN2CCCCC2)cc1`, for which the “hERG current change (%, negative = inhibition) at 1uM” value came to 11.6%.
For the molecule `CCOc1c(Br)cc(C(=O)NCCCn2ccnc2)cc1OC`, the “hERG current change (%, negative = inhibition) at 1uM” value came to 11.1%.
In the case of `CC(=O)Nc1ccc(C(=O)NCCCSc2ccccc2)cc1`, the “hERG current change (%, negative = inhibition) at 1uM” value came to 12.9%.
The value for `CC(=O)NCCNc1nc2c(-c3ccccc3)nnn2c2ccccc12` was 18.7%.
Turning to `COC(=O)c1ccc(S(=O)(=O)NCc2ccc(OC)cc2)n1C`, the “hERG current change (%, negative = inhibition) at 1uM” value was determined as 7.95%.
For `O=C(CCn1cccc1)N1CCc2ccccc21`, the “hERG current change (%, negative = inhibition) at 1uM” value is 9.61%.
The value for `CCN1CCN(CC(=O)c2cc(Cl)ccc2Cl)CC1` was 22.8%; that for `Cc1cc(C)c(-c2cc(NC(=O)COC(=O)c3ccc(CO)cc3)n(-c3ccccc3)n2)cc1C` was 13.5%.
The value for `Cl.c1ccc(CCN=C2CCCc3c2[nH]c2ccccc32)cc1` was -2.01%.
As to `COc1ccc(CC(=O)Nc2cccc(/C(C)=N/NC(=O)C3(C)CC3(Br)Br)c2)cc1` (centres unmarked), the “hERG current change (%, negative = inhibition) at 1uM” value is given as 6.46%.
For `O=c1c2ccccc2c2c(O)nc(-c3ccccc3)n2n1Cc1ccccc1`, the “hERG current change (%, negative = inhibition) at 1uM” value turned out to be 14.1%.
